In patent US20120180150A1 (published 2012):

Biological target: T1, mouse IP3R1 full length with C-terminal GFP (mouse, UniProt P11881 1-2749)
T1 construct: also called IP3R1-GFP; IP3R-GFP protein; not shown: C-terminal GFP of the pEGFP-N1 vector, with any linker from the cloning site
Assay: HA-matrix co-immunoprecipitation from HEK 293 cells, anti-GFP Western blot
Method: Into HEK 293 cells, a full length IP3R1-GFP expression plasmid and each of the KRAP full length, the deletion mutants, or the point-mutant expression plasmids were introduced together with lipofectamine LTX (Invitrogen), respectively, and the resulting cells were incubated for 24 hours. They were then homogenized in an extracting buffer (50 mM Tris-HCl, pH7.5, 140 mM NaCl, 0.5% NP40, 0.25M NDSB-201 (Calbiochem), and protease inhibitors (Complete EDTA-free, Roche)), and the homogenized mixture was centrifuged at 15,000 rpm for 30 minutes. The resulting supernatant was then subjected to immunoprecipitation with HA matrix (Roche) to precipitate the IP3R-GFP protein binding to the KRAP protein, and the precipitated IP3R-GFP protein was detected by Western blots using a rabbit polyclonal antibody (Clonetech) as an anti-GFP antibody. In the experiment using HCT 116 cells, the presence or absence of co-precipitation of the endogenous IP3R protein was investigated without transfection of the IP3R-GFP protein using a mouse monoclonal antibody (BD Transduction Laboratory) as an anti-IP3R3 antibody.

T1 sequence (P11881 whole entry S1044R/E1045K): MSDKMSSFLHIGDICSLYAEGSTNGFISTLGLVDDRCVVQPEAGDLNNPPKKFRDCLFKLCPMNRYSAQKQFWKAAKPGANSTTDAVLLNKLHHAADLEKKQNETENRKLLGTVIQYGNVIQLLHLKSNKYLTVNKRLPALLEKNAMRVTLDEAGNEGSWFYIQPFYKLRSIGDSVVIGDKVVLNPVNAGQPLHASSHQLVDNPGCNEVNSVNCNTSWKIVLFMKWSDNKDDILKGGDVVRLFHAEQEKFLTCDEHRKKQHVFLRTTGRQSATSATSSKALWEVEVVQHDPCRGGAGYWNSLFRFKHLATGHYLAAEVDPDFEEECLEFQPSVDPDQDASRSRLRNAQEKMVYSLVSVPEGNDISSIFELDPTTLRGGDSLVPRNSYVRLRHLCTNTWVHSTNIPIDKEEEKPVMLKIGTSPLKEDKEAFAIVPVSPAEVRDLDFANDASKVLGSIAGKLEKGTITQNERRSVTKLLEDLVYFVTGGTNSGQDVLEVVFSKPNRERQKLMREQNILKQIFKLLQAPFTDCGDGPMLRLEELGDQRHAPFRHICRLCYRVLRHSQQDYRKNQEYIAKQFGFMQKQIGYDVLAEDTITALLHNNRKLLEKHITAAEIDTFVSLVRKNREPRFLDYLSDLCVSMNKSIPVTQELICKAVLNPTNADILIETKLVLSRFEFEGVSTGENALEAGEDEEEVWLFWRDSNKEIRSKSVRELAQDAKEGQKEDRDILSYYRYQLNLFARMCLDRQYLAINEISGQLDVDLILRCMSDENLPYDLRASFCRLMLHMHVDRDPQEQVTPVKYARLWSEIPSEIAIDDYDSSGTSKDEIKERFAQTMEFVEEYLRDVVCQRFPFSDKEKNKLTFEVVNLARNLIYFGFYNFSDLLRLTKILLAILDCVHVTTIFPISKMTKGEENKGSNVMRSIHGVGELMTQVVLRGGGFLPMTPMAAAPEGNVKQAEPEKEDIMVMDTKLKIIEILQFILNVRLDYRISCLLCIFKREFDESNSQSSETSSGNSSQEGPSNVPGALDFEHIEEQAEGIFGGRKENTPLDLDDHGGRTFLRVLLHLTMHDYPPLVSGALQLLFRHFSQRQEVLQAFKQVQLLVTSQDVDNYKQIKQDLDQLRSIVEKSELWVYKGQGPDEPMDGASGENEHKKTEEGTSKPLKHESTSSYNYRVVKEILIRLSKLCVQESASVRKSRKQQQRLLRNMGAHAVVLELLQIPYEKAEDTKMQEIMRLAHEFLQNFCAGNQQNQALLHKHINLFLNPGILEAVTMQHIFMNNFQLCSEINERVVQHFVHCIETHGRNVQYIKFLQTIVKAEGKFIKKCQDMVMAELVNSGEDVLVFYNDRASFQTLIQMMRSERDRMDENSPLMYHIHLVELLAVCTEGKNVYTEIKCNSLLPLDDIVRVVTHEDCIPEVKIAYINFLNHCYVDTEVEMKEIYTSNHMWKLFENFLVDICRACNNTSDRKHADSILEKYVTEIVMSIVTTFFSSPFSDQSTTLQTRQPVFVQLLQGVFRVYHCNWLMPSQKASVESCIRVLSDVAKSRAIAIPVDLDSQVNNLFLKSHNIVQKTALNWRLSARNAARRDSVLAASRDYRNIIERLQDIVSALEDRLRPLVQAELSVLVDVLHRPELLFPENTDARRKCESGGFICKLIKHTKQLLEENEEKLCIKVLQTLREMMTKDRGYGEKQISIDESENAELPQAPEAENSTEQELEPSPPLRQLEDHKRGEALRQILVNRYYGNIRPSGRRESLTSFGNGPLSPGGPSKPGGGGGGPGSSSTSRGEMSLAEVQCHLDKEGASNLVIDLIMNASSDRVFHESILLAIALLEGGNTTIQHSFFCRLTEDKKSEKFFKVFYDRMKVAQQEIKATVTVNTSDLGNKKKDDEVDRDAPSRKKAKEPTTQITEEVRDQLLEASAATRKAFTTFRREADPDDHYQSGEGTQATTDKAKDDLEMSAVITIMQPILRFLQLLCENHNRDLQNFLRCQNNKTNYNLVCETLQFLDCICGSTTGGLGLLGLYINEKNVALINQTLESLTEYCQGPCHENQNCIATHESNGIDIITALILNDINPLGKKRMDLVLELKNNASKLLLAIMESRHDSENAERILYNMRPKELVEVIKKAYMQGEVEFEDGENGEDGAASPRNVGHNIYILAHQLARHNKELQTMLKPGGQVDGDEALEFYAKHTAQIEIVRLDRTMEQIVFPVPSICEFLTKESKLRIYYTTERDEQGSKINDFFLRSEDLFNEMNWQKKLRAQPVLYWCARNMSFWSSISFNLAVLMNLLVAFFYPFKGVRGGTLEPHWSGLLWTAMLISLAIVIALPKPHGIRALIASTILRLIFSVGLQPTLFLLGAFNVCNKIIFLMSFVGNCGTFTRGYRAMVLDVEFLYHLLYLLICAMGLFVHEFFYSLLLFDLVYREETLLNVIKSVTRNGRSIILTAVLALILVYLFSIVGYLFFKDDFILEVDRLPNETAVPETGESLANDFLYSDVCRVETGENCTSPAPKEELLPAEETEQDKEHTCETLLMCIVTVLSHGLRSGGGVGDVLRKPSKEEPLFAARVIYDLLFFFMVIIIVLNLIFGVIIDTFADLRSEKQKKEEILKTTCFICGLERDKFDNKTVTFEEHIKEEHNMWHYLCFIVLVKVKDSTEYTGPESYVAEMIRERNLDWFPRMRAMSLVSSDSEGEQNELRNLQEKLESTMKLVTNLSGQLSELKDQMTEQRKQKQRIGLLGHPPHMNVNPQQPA

B1: mouse KRAP deletion mutant, amino acid residues 1-199, N-terminal HA tag (other)
chain: MNRPLSAEAEEELEWQVASRRRKAWAKCRSSWQASETEDLSTETTTQDEDEDDEEDLPGTKLPAPAGRGNVPNEKIAIWLKDCRTPLGASLDEQSSGTPKGVLVRNGGSFEDDLSLGAEANHLHEPDAQVENCNNILAKERRLQFHQKGRSMNSTGSGKSSGTVSSVSELLELYEEDPEEILYNLGFGRDEPDIASKIP
notes: not shown: N-terminal HA tag of the pCMV-HA vector
B1: no binding.
